The densities may have been worked out from excess volumes.
Experiment: xn = mol fraction of the nth substance listed
Conditions: 101 kPa

CCCCCC[n+]1ccn(C)c1.F[B-](F)(F)F + CCCC[n+]1ccn(C)c1.F[B-](F)(F)F
mass density [kg/m3]
Conditions | 298.15 K | 299.15 K | 301.15 K | 302.15 K | 303.15 K | 304.15 K | 305.15 K | 307.15 K | 308.15 K
x2 = 0 | – | 1144.5 | 1143.1 | 1142.4 | 1141.7 | 1141.1 | 1140.4 | 1139 | 1138.3
x2 = 0.054 | 1148.1 | 1147.3 | 1145.9 | – | – | 1143.8 | 1143.2 | 1141.8 | 1141.1
x2 = 0.103 | 1150.6 | 1149.8 | 1148.4 | – | 1147 | 1146.3 | 1145.7 | 1144.3 | 1143.6
x2 = 0.2076 | 1155.9 | 1155 | – | 1152.9 | 1152.2 | 1151.6 | 1150.9 | 1149.5 | 1148.8
x2 = 0.3602 | 1163.6 | 1162.8 | 1161.4 | 1160.7 | 1160 | 1159.4 | 1158.7 | 1157.3 | –
x2 = 0.4383 | 1168 | 1167.1 | – | 1165 | – | 1163.6 | 1162.9 | 1161.5 | 1160.8
x2 = 0.5047 | 1171.7 | 1170.9 | 1169.5 | – | 1168.1 | 1167.4 | 1166.7 | 1165.3 | 1164.6
x2 = 0.555 | 1174.6 | 1173.8 | 1172.4 | 1171.7 | 1171 | 1170.3 | 1169.6 | 1168.2 | 1167.5
x2 = 0.598 | 1177 | 1176.1 | 1174.7 | 1174 | 1173.3 | 1172.6 | – | 1170.5 | 1169.8
x2 = 0.809 | 1189.5 | 1188.7 | – | 1186.6 | 1185.9 | 1185.2 | 1184.5 | 1183.1 | 1182.4
x2 = 0.8917 | 1194.6 | – | 1192.3 | 1191.6 | 1190.9 | 1190.3 | 1189.6 | 1188.2 | 1187.5

CCCC[n+]1ccn(C)c1.F[B-](F)(F)F + CCCC[n+]1ccn(C)c1.F[P-](F)(F)(F)(F)F
x2 = 0
Conditions | mass density [kg/m3]
299.15 K | 1200.6
303.15 K | 1198.1
304.15 K | 1197.3
305.15 K | 1196.6
307.15 K | 1195.2

CCCCCC[n+]1ccn(C)c1.F[B-](F)(F)F + CC[n+]1ccn(C)c1.F[B-](F)(F)F
mass density [kg/m3]
Conditions | 298.15 K | 299.15 K | 301.15 K | 302.15 K | 303.15 K | 304.15 K | 305.15 K | 307.15 K | 308.15 K
x2 = 0 | 1145.8 | 1145.1 | 1143.7 | 1143 | 1142.3 | 1141.5 | 1140.8 | 1139.5 | 1138.8
x2 = 0.0545 | 1150.8 | 1150.1 | 1148.7 | 1148.1 | 1147.3 | 1146.6 | 1145.9 | 1144.5 | 1143.8
x2 = 0.1196 | 1157.2 | 1156.6 | – | 1154.5 | 1153.8 | 1153.1 | 1152.4 | 1151 | 1150.3
x2 = 0.1803 | 1163.6 | 1162.9 | 1161.4 | 1160.7 | 1160 | 1159.3 | – | 1157.2 | 1156.5
x2 = 0.3145 | 1178.4 | 1177.6 | 1176.3 | 1175.6 | 1174.9 | 1174.2 | 1173.5 | – | –
x2 = 0.4061 | 1189.5 | 1188.8 | – | 1186.7 | 1186 | 1185.3 | 1184.6 | – | 1182.5
x2 = 0.446 | – | 1193.7 | 1192.3 | 1191.6 | 1190.9 | 1190.2 | 1189.5 | 1188.1 | 1187.4
x2 = 0.4938 | – | – | 1198.4 | – | – | 1196.3 | 1195.6 | – | 1193.4
x2 = 0.5526 | – | 1207.5 | 1206.1 | – | 1204.7 | 1204 | 1203.3 | 1201.8 | 1201.1
x2 = 0.6006 | – | 1214.4 | 1212.9 | 1212.2 | – | 1210.7 | 1210 | 1208.5 | 1207.8
x2 = 0.7059 | 1230.3 | 1229.6 | 1228.1 | – | 1226.6 | 1225.9 | 1225.2 | 1223.7 | 1223
x2 = 0.793 | 1243.7 | – | – | 1240.7 | 1240 | 1239.2 | 1238.5 | 1237 | –
x2 = 0.8516 | 1253.3 | 1252.5 | 1251 | 1251.1 | 1249.5 | 1248.8 | 1248 | 1246.5 | 1245.8
x2 = 0.9022 | – | 1260.8 | 1259.3 | 1258.6 | – | – | 1256.4 | 1254.9 | –
